The BET-seq Pho4 binding data (Le et al. 2018)
Some of the results follow. These are noisy estimates, calculated here from bound and input reads.

What follows are sequences tested against T1, Pho4 (S. cerevisiae) (UniProt P07270) (assay: relative binding free energy (BET-seq); higher = weaker binding). Details: reference: library average.
T1 sequence: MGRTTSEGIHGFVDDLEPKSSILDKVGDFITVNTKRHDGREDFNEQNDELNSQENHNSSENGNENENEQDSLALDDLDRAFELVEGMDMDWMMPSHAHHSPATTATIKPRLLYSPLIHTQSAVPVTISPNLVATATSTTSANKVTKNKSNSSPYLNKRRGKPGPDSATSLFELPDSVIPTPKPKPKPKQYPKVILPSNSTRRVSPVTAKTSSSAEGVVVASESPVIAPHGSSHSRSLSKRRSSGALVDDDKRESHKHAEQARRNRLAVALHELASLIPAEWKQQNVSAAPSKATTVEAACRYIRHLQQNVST

Relative binding free energy, 0.17 kcal/mol:
GTGTTCACGTGGCTGC
TTGTTCACGTGTCTAA
GTGGACACGTGATATT
AGTGTCACGTGAAGGT

Relative binding free energy, -0.08 kcal/mol:
GGGAGCACGTGTATGC
GGAGGCACGTGCGTTT
AGTTGCACGTGCTGAT
TTTCGCACGTGGGAGC
GGGCGCACGTGCGGAT

Relative binding free energy, 0.32 kcal/mol:
TGTTTCACGTGCTTGC

Relative binding free energy, 0.23 kcal/mol:
GGGGTCACGTGATTCA
GGTTGCACGTGACATG
TTGCTCACGTGTATGG
GGTGTCACGTGAGTAA
AATATCACGTGCGGTT

Relative binding free energy, -0.29 kcal/mol:
GGACGCACGTGGGGTG
TACAGCACGTGGGGGT

Relative binding free energy, -0.12 kcal/mol:
GGTGGCACGTGCGCGG
CTGGCCACGTGGGTTG
ATATACACGTGTTTAT
CACGGCACGTGCGGGT
TTAGGCACGTGGGTAG

Relative binding free energy, -0.26 kcal/mol:
ACAGGCACGTGTGTTT

Relative binding free energy, 0.07 kcal/mol:
TTTATCACGTGTTTTA
ATTAGCACGTGGAATG
TTGCACACGTGTGTGG
CTATGCACGTGTTGGG
AGGGCCACGTGTAATG
TTAATCACGTGGTATT

Relative binding free energy, 0.02 kcal/mol:
GATGTCACGTGGTAAG
TAGAGCACGTGTCTGT
TTGTGCACGTGTTCAA

Relative binding free energy, 0.38 kcal/mol:
GATTTCACGTGTTGCA
GGTATCACGTGAGCTT

Relative binding free energy, -0.27 kcal/mol:
CGCTGCACGTGGCGGG

Relative binding free energy, 0.12 kcal/mol:
TTCGACACGTGTAGGT
TTTGTCACGTGATATA
GAGGACACGTGTGGAG
AGAATCACGTGTGGCG
TGAGACACGTGGATTA

Relative binding free energy, 0.26 kcal/mol:
GTAATCACGTGTGGGA
TTATACACGTGAATAT

Relative binding free energy, -0.22 kcal/mol:
GAAGGCACGTGGGCGC

Relative binding free energy, 0.3 kcal/mol:
GTCTTCACGTGGAGGG
CGGGTCACGTGAGTGC

Relative binding free energy, 0.13 kcal/mol:
TTTGACACGTGCAATG
GTTTACACGTGCTAGT
GGTAACACGTGTTTCG
AGCCGCACGTGAGTGT
TTTATCACGTGTTAAT
GGTTCCACGTGGAGTA
GTCGTCACGTGTAGCG
TCTTTCACGTGGGAAG

Relative binding free energy, 0.22 kcal/mol:
GGGATCACGTGGTCTG
TCGATCACGTGTTTTT
TTTTTCACGTGTAGAG

Relative binding free energy, -0.18 kcal/mol:
TGCAACACGTGGGGTG
TGTGGCACGTGGGTAA
TTTAGCACGTGTCTGT
ATGTGCACGTGGGATT
GTTGGCACGTGGCTGA

Relative binding free energy, -0.14 kcal/mol:
TGGCGCACGTGTGGAA
TGAAGCACGTGTCGGG
AGTGGCACGTGTTAGA

Relative binding free energy, -0.21 kcal/mol:
ACGTGCACGTGGTTGA

Relative binding free energy, 0 kcal/mol:
GAGGCCACGTGTTTGT
GAGGACACGTGTTGTG
GATGGCACGTGGTTTT
CTTATCACGTGGCGGG
GGTGTCACGTGGACTA
TTGTACACGTGCGGAG
TTAAACACGTGTGGCG
GTCGTCACGTGGGTAG
ACATGCACGTGTTGGA

Relative binding free energy, -0.06 kcal/mol:
TGGTGCACGTGTTCAA
AGTGCCACGTGTATTG

Relative binding free energy, -0.24 kcal/mol:
GTTGACACGTGGCTTG
ACTTGCACGTGGTAGT

Relative binding free energy, -0.02 kcal/mol:
TGTGGCACGTGGAGTT
AAGGACACGTGGTAGT
TTTGACACGTGTTGTC
GGGAGCACGTGTATAT

Relative binding free energy, -0.17 kcal/mol:
AATCGCACGTGGTAGT
TAGGGCACGTGCAAGT
TAAAGCACGTGGTCTT
TTGTGCACGTGTTCGT

Relative binding free energy, 0.34 kcal/mol:
ATTTTCACGTGTATGA
GGTTTCACGTGGATAG

Relative binding free energy, 0.5 kcal/mol:
TATCTCACGTGAGGGA

Relative binding free energy, -0.05 kcal/mol:
CCGGGCACGTGATGGG
AGATGCACGTGGAGAG
TGTGTCACGTGGTTAC
TAGAACACGTGGTATT

Relative binding free energy, -0.33 kcal/mol:
AGTACCACGTGGGGTA

Relative binding free energy, 0.31 kcal/mol:
GGATTCACGTGTAGGA
ATTTTCACGTGGATTT
AGTCTCACGTGTGGTA

Relative binding free energy, -0.16 kcal/mol:
TCGAACACGTGGGTGG
GAGGGCACGTGCGTGG

Relative binding free energy, 0.29 kcal/mol:
TTGTTCACGTGTGCGA

Relative binding free energy, 0.11 kcal/mol:
GTTGACACGTGGATTG
CTTGTCACGTGGATTA
AGATGCACGTGTGATG
GGATCCACGTGATGGT
GGGGCCACGTGAGCGG

Relative binding free energy, -0.1 kcal/mol:
TTGCGCACGTGGTTCG
CGGTCCACGTGGTGTA
GCTCGCACGTGGTTTG

Relative binding free energy, 0.06 kcal/mol:
AGTTGCACGTGCAAAG
AACGTCACGTGGTGAT
TGTCACACGTGTTTGT
TGAGGCACGTGTCTGA
GGAATCACGTGTTTTA

Relative binding free energy, 0.1 kcal/mol:
TTTATCACGTGCATAG
CTGCGCACGTGAGGGG
TGTCTCACGTGTGGTG
TGAGGCACGTGCGAAT
ATAAACACGTGATTGT
TATCTCACGTGTTAGG
GTTGACACGTGTGGTG
ATAATCACGTGTTAGG
ATGTACACGTGGTGGC

Relative binding free energy, 0.18 kcal/mol:
GAATACACGTGGTGGC
CGACTCACGTGGGGTA
GTGCGCACGTGGAATA
AAATTCACGTGTGCTT
ATAAACACGTGTTAAG
TAGGTCACGTGGATTC

Relative binding free energy, 0.15 kcal/mol:
TTTGGCACGTGAAGGT
GTGTCCACGTGTATTA
TTTCACACGTGGAAGG

Relative binding free energy, 0.14 kcal/mol:
GGGGTCACGTGGTAGA
CTGTTCACGTGGGCTT
AATATCACGTGGGTTT
GATTGCACGTGTATAT
TTTGTCACGTGGGATC
CGTTACACGTGGATTG
GGTACCACGTGAGGTG
AGGTACACGTGTTCAG

Relative binding free energy, 0.24 kcal/mol:
AAAGTCACGTGCAGTT

Relative binding free energy, -0.15 kcal/mol:
GTGAACACGTGGGTAA
GATAACACGTGGGGAT

Relative binding free energy, -0.23 kcal/mol:
ATTGGCACGTGGTTTG
CGCGGCACGTGGTGGG
ATATACACGTGGGGTC
TTGGCCACGTGGGTCG

Relative binding free energy, 0.08 kcal/mol:
TGTGTCACGTGTCTGT
TGCGACACGTGGATGT

Relative binding free energy, 0.04 kcal/mol:
ATAGTCACGTGGGATC
ATGCTCACGTGGGTTC
GTGAACACGTGGAGGG
TGATGCACGTGACTTG

Relative binding free energy, 0.21 kcal/mol:
TATTTCACGTGTCTTT
GAAGACACGTGAGGTG
TTTTGCACGTGAGCCG
TTTTTCACGTGGTCCG

Relative binding free energy, 0.36 kcal/mol:
AGTTTCACGTGTCCGT
GGTCTCACGTGATTGT

Relative binding free energy, -0.2 kcal/mol:
AGCGACACGTGGGGGT

Relative binding free energy, 0.05 kcal/mol:
GTGCACACGTGGGATA
TTCGGCACGTGTTAAT
TTGAACACGTGTTCGT
TTATGCACGTGACGCG
TATGTCACGTGGAAGG
TGTCACACGTGTTGTC
ATATGCACGTGTCCGG
ATGAACACGTGCGGGG

Relative binding free energy, 0.16 kcal/mol:
ATTTGCACGTGATGGG
CGGGTCACGTGTTTAG
GTTTACACGTGTGGAT

Relative binding free energy, -0.11 kcal/mol:
GGGCGCACGTGTGTGC
TGTGACACGTGCTAGT
GACGGCACGTGTGGGA
TATAACACGTGTTTTG
ATTGGCACGTGTTTGC
GGGGGCACGTGGGTGG
CATAGCACGTGGTGAG

Relative binding free energy, 0.2 kcal/mol:
AAGGTCACGTGTTGTG
TGTTTCACGTGATGCG
ATGTGCACGTGATTTC

Relative binding free energy, -0.01 kcal/mol:
GCATACACGTGTGGGG
GTGGGCACGTGTATGG
CGGGGCACGTGCAGGC
AATCTCACGTGGGGGG
AAGGTCACGTGGTCGT
CGTCACACGTGTTGGT

Relative binding free energy, 0.28 kcal/mol:
GTTGTCACGTGACATA
TGTTTCACGTGTGGCT

Relative binding free energy, 0.45 kcal/mol:
CTTTTCACGTGTGATG

Relative binding free energy, -0.25 kcal/mol:
CCGAGCACGTGGGTGT

Relative binding free energy, 0.01 kcal/mol:
GTGGGCACGTGACGCG
AGTTGCACGTGTTGAT
TGGGACACGTGTGTAT

Relative binding free energy, -0.09 kcal/mol:
AACTGCACGTGGTATG
ATGGTCACGTGGGTCA
TATAGCACGTGATGCT
CTTGCCACGTGTTTGT
TAATACACGTGGTTAT
GGTGGCACGTGTTACT
AGCTACACGTGGGGTA

Relative binding free energy, 0.09 kcal/mol:
TCAGGCACGTGAGGTT
TCAGGCACGTGTGGGA
AAGGACACGTGTTGTG

Relative binding free energy, 0.03 kcal/mol:
TTTGTCACGTGGAGCA
TGTTGCACGTGCCGTT
TGTAGCACGTGTGGCT
CGTTGCACGTGTTTCT
GGTGACACGTGTTATA
TATGGCACGTGTCATG

Relative binding free energy, 0.25 kcal/mol:
GTTAACACGTGTAGTC

Relative binding free energy, -0.03 kcal/mol:
TGATGCACGTGTTGAA
TCTTGCACGTGGTTCG

Relative binding free energy, 0.33 kcal/mol:
GTTATCACGTGATTGG

Relative binding free energy, 0.19 kcal/mol:
GATCTCACGTGGGGCT
AAGGTCACGTGTTGTA
AGTGTCACGTGTCTGC

Relative binding free energy, 0.37 kcal/mol:
TGCTTCACGTGATATA

Relative binding free energy, 0.42 kcal/mol:
AGTTTCACGTGCGAGC

Relative binding free energy, -0.07 kcal/mol:
TTTAGCACGTGCATTT

Relative binding free energy, -0.19 kcal/mol:
ATTGACACGTGGTGCT
TTTGCCACGTGTCGGG
GTGAGCACGTGGGGCG

Relative binding free energy, 0.27 kcal/mol:
TGTTACACGTGAGTTC
GGTTACACGTGTGGTA

Relative binding free energy, -0.04 kcal/mol:
GTGTGCACGTGTTTAG
GGGGGCACGTGTTATT

Relative binding free energy, 0.44 kcal/mol:
TCGTTCACGTGAGGTT
CTATTCACGTGAAGGT
AAGCTCACGTGAGTTG

Relative binding free energy, -0.3 kcal/mol:
GCGGGCACGTGGGTAT
